Reference: paper PMC4336329 (PLoS ONE, 2015)
Hit rate of the full screen: of about 310,000 compounds, about 2,200 (0.71%) showed an effect of 50% or more. Effects have a minus sign here. This is one part of the list.

Each molecule was assayed against human ether-à-go-go-related gene (hERG) potassium channel (human, UniProt Q12809) (assay: primary screen, population patch clamp on CHO cells stably expressing hERG).
human ether-à-go-go-related gene (hERG) potassium channel, sequence (Q12809 whole entry, looked up): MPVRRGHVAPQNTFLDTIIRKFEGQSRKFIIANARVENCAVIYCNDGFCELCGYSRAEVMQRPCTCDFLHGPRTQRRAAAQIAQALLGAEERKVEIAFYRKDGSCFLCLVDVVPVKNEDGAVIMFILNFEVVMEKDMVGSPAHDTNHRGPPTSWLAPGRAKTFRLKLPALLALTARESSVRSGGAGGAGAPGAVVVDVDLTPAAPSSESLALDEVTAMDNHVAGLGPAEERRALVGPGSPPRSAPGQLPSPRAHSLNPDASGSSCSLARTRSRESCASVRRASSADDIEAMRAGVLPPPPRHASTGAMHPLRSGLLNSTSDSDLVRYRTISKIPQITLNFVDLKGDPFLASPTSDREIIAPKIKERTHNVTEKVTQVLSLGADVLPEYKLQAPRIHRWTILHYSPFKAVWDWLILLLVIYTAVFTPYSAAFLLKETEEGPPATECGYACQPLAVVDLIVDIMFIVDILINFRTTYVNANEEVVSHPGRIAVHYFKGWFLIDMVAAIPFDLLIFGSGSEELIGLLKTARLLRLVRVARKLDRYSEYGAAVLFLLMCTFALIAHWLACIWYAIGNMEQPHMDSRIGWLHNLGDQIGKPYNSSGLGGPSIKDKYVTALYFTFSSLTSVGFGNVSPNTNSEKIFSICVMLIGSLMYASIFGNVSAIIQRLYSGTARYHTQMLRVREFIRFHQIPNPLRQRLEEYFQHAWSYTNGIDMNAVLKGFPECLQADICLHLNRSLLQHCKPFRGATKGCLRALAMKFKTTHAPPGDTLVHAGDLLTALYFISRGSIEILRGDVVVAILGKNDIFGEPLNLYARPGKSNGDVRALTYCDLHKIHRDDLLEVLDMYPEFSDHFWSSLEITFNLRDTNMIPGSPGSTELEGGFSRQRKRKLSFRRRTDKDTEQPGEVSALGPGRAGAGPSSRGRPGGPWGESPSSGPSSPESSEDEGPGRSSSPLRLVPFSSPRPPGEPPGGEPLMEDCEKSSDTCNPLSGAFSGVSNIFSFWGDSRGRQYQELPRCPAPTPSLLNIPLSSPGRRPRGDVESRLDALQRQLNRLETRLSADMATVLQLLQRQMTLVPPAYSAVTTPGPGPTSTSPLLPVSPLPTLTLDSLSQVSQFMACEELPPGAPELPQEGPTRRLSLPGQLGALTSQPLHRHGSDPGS

Compound | hERG current change (%, negative = inhibition) at 1uM
COc1cc2c(cc1NC(=O)COC(=O)/C=C/c1ccc([N+](=O)[O-])cc1)oc1ccccc12 | -1.76%
COc1cc(CN2CCCCCC2)cc(OC)c1OC.O=C(O)C(=O)O | 14.9%
Cc1cc2n(c(=O)c1C#N)CCCN2c1cccc(Cl)c1 | -28%
O=C(NC1CC1)C1CCCN1S(=O)(=O)c1ccc2ccccc2c1 (stereo not shown) | 10.7%
CCc1nc2cc(CC(=O)O)ccc2o1 | 15.9%
CCOC(=O)c1ccc(N2C(=O)C3C(/C=C/c4ccccc4)OC4(C(=O)c5ccccc5C4=O)C3C2=O)cc1 (stereo not shown) | 17.5%
O=C(OCn1ncc(Br)c(Br)c1=O)c1ccc(F)cc1 | 3.04%
S=c1nc2c(n[nH]1)c1ccccc1n2CCc1ccccc1 | 14.2%
CCOc1ccc(-n2ccnc2SCC(=O)NCc2ccc3c(c2)OCO3)cc1 | -5.32%
CCN(CC)c1ccc(/C=N/NC(=O)c2ccc3nc[nH]c3c2)c(O)c1 | 23.6%
COc1ccc(NC(=O)CN2CCN(c3ccccn3)CC2)cc1Cl | 8.62%
COc1ccc(S(=O)(=O)Nc2cccc3ccc(O)cc23)cc1 | 4.41%
COc1cc(/C=C2\SC(=S)N(CCC(=O)N3CCN(C)CC3)C2=O)cc(OC)c1OC | -11.9%
Cn1c(-c2sc3cc(C(F)(F)F)cnc3c2-c2ccccn2)n[nH]c1=S | 8.25%
CCC/C=N/Nc1nnc(Cc2ccccc2)c(=O)[nH]1 | -6.7%
CCN(CC)C(=O)CSc1nc(-c2cccs2)cc(-c2cccs2)c1C#N | -13.3%
CC1CCC(NC(=O)c2cc(Cl)nc3ccccc23)CC1 (stereo not shown) | 16.9%
CC(C)c1ccc(CN2CC(C(=O)O)CC2=O)cc1 (stereo not shown) | 11.9%
COc1ccccc1N(C)S(=O)(=O)c1ccc(C(=O)N2CCCC(C(F)(F)F)C2)cc1 (stereo not shown) | 11.3%
O=C(Nc1ccnn1C1CCN(Cc2ccccc2)CC1)C1CCCC1 | -15.9%
CCOC(=O)C1CCN(Cc2cccc(Oc3ccccc3)c2)CC1 | 1.37%
COc1cccc(-c2cccc(NC(=O)C3CCN(Cc4cccc(C)n4)CC3)c2)c1 | -46.7%

Compound | hERG current change (%, negative = inhibition) at 1uM
COc1ccccc1C(=O)N1CCC(N2CCN(c3ccccc3)CC2)CC1 | 8.69%
COc1ccccc1-n1cnc2cc(C(=O)NCCCN3CCOCC3)ccc21 | 6.93%
CC(C)c1ccc(S(=O)(=O)N2CCN(C(=O)n3ccnc3)CC2)cc1 | -9.6%
Fc1ccc(CN2CCN(C(=S)NCCc3ccccc3)CC2)c(Cl)c1 | 17.4%
Cc1ccc(N2C(=O)NC(=O)C(CCc3ccccn3)(Cc3cccc(Cl)c3Cl)C2=O)cc1 (stereo not shown) | 0.912%
COc1ccc(/C=N\NC(=O)c2ccccc2OC)cc1COc1ccccc1C | 15%
CNC(=O)C1(C)C=CC2(CCCCC2)N1C(=O)OC (stereo not shown) | 16.8%
O=S(=O)(c1ccc2ccccc2c1)N1C=CC(C(F)(F)F)=NCC1 | 6.67%
COc1ccc(-n2c(=O)c3c4c(sc3n(CC(=O)NCC3CCCO3)c2=O)CCCC4)c(OC)c1 (stereo not shown) | 10.2%
COc1cc(/C=N/N=C(N)N)ccc1OCc1ccc(Cl)cc1 | -10.3%
O=C1c2ccccc2NC(c2cccs2)N1NS(=O)(=O)c1ccccc1 (stereo not shown) | 6.35%
CN1C(=O)/C(=C/c2ccccc2OCc2ccc(C(=O)O)cc2)NC1=S | 11.5%
CCOc1ccc(S(=O)(=O)N(C)c2ccc(OCC(=O)N3c4ccc(C)cc4C4CN(C)CCC43)cc2)cc1 (stereo not shown) | -2.11%
COc1ccc(N2CCN(C(=O)CCSCc3ccccc3F)CC2)cc1 | 7.88%
c1ccc(C(Cc2nc(-c3ccccn3)no2)c2ccccc2)cc1 | -2.47%
O=S(=O)(NCCSc1nc2ccccc2o1)c1ccccc1 | 6.23%
O=C(O)c1ccc(COc2ccc3ccccc3c2)o1 | 8.76%
COc1ccc(NC(=O)NCc2ccc3c(c2)OCO3)cc1 | 6.04%
CCOc1ncccc1C(=O)Nc1ccc2c(C)cc(=O)oc2c1 | 14.5%
Cc1c(CC(=O)O)c(=O)oc2c(C)c(OCc3c(F)cccc3Cl)ccc12 | 11.5%
CCn1c(COc2cccc3cccnc23)nnc1SC(F)F | 8.09%
